Test results reported in PubChem BioAssay AID1508624 (National Center for Advancing Translational Sciences (NCATS), 2021).
Hit rate of the full screen: of about 48,000 compounds, about 120 (0.25%) were called active. Not shown: some 4% with an inconclusive outcome. The call rests on the fitted dose curve; in most records, active means well fitted activation curve with a large enough effect; inconclusive means small, poorly fitted or top-dose-only effect, or another doubt; inactive means no such curve, though single readings can be large or run the other way. The list shows a part of the results.

experiment: Primary qHTS for Identification of Small Molecule Activators of Huntingtin-Antisense Promoter Activity; conditions: HEK293 HTT-AS promoter firefly luciferase reporter, 24 h; series mostly up to 57.5 µM; activity change, positive = activation: at the top concentration; further: nearly all actives have a fitted effect of over 55% in size
How it was run: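 Firefly luciferase readout (Dual-Glo, 10 min RT) after 24 h, 37 °C compound exposure (final up to 57.5 uM) of HEK293 reporter cells cultured 24 h beforehand; PTC124 at 50 uM final as control inhibitor; activity scaled vehicle 0%, zero RLU -100%.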

Activity change, positive = activation, inactive:
O=C(CN1C(=O)C(c2ccc(F)cc2)=NC12CCCCCC2)Nc1ccc(F)c(Cl)c1 -47.4%
Cc1ccc2c(=O)cc(C(=O)Nc3c(C)n(C)n(-c4ccccc4)c3=O)oc2c1C 6.51% [at 11.5 µM, percent change from vehicle, -100% = no light]
CCC(=O)NC1CC(=O)N(c2ccc3c(c2)OCCO3)C1 (centres undefined) -0.457%
COc1ccccc1NC(=O)Cn1c(=O)n(Cc2ccco2)c(=O)c2oc3ccccc3c21 -14.9%
COC(=O)C(C)Sc1nnc2cc(C)c3cc(C)cc(C)c3n12 (centres undefined) -15.1%
COc1cc(-c2cc(OC)c3c(C)oc(C)c3c(=O)c2)ccc1OC(=O)c1ccccc1C -32.3%
Cc1cc(C)c2c(-n3cccc3)c(C(=O)NCCc3ccc(Cl)cc3)sc2n1 -16.5%
CN(C(=O)c1nc(-c2cccc(F)c2)n2c1CCCCC2)c1ccccc1F -7.54%
Cc1ccc(-n2c3c(c(=O)[nH]c2=O)C(NC(=O)c2ccccc2F)(C(F)(F)F)C(=O)N3)cc1C (centres undefined) -11.3%
CCN(CCCNC(=O)c1cc2c(=O)n(CC)c3ccccc3c2s1)c1cccc(C)c1 -9.35%
Cc1ccccc1-c1nc(CS(=O)(=O)CC(=O)NC(C)c2ccccc2)c(C)o1 (centres undefined) -25.7%
CCc1ccc(N2CCn3c2nc2c3c(=O)n(Cc3ccc(F)cc3)c(=O)n2C)cc1 -6.17%
COc1ccc2c(c1)c(=O)c(S(=O)(=O)c1ccc(C)c(C)c1)cn2CC(=O)Nc1ccccc1 -17.2%
CCc1ccc(NC(=O)c2cc3c(=O)n(Cc4cccs4)ccc3nc2C)cc1 -13.3%
COc1ccc(Cl)cc1NC(=O)CN(c1cc(C)cc(C)c1)S(=O)(=O)c1c(C)n[nH]c1C -37.9%
COc1cc(-c2noc(C3CC(=O)N(c4ccc5c(c4)OCCO5)C3)n2)cc(OC)c1OC (centres undefined) -7.33%
O=C(Nc1cc(F)ccc1F)C1COc2ccccc2C1 (centres undefined) 18.6%
CCN(CC)CC(=O)Nc1c(C)cccc1C -9.78%
Cc1ccc(CNc2ccc(-c3nc(-c4ccco4)no3)cc2[N+](=O)[O-])cc1 -8.73%
Cc1ccc(-c2cc(C(=O)O)n(Cc3ccccc3)n2)cc1 25.2%
Cc1ccc(S(=O)(=O)c2nc(-c3ccccc3)oc2N2CCN(c3ccccc3)CC2)cc1 -12.9%
COc1ccc(C(=O)Nc2ccc(-n3nncc3-c3ccc(OC)c(OC)c3)cc2)cc1 -15.3%
CCOc1ccc(-c2nc3c(C#N)c[nH]n3c2NC2CCCC2)cc1 32.8%
Cc1ccc(C2=Nc3ccccc3NC(c3ccncc3)=N2)cc1 -20.5%
CNS(=O)(=O)c1cn(CC(=O)Nc2ccc(C)cc2C)cc1S(=O)(=O)NC -8.51%
COc1ccc(NS(=O)(=O)c2ccc(NC(=O)N3CCCC3)cc2)cc1 -22.1%
Cc1ccc(-c2cn3c(n2)sc2cc(C(=O)NCCCc4ccccc4)ccc23)cc1 29.1%
COc1ccc(CCNC(=O)CCc2c(C)nc3c(c(C)nn3-c3ccc(C)cc3)c2C)c(OC)c1 -15.8%
CCc1ccccc1NC(=O)C1CCCN(S(=O)(=O)c2cccc3nsnc23)C1 (centres undefined) -7.41%
COc1ccc(Nc2cc(C)nc(-n3nc(C)cc3C)n2)cc1Cl -74.7%
Cc1ccc(Cc2nc3ccccc3nc2SCC(=O)Nc2cccc(C(F)(F)F)c2)cc1 -28.3%
COC(=O)c1cnn(-c2ccc(C(=O)Nc3ccc(C(C)=O)cc3)cc2)c1N -7.37%
O=C(CN1CCSc2ccccc21)N1CCN(c2cccc(Cl)c2)CC1 -23.5%
Cc1ccc(-n2ncc3c(NC4CCCCC4)ncnc32)cc1 -56.6%
CC(C)(C)c1ccc(S(=O)(=O)NCc2nc3cccnc3n2Cc2ccccc2Cl)cc1 -32.5%
Cc1nn(CC(=O)NCCc2ccccc2Cl)c(=O)c2nn(-c3ccccc3)c(C)c12 -15.4%
O=S(=O)(c1ccccc1)N1CCC(c2ccncc2)CC1 -42.7%
CCOc1ccc(CNC(=O)Cn2nc(C)c3nn(-c4ccc(Cl)cc4)c(C)c3c2=O)cc1OC -18.3%
O=C1COc2cc(S(=O)(=O)CCC(=O)N3CCN(c4cccc(Cl)c4)CC3)c(Cl)cc2N1 -41.8%
CCC(C)NC(=O)c1sc2nc(C)c(C(=O)Nc3ccc(C)cc3C)c(-c3ccc(Cl)cc3)c2c1N (centres undefined) -11.3%
CC(=O)OCC(=O)[C@@]12OC(C)(C)O[C@@H]1C[C@H]1[C@@H]3C[C@H](F)C4=CC(=O)C=C[C@]4(C)[C@@]3(F)[C@@H](O)C[C@@]12C -4.21%
COc1ccc(CNCc2c(C(=O)O)c(C)n(Cc3ccc(Cl)cc3)c2C)c(OC)c1 -14.6%
c1ccc2c(CC3=NCCN3)cccc2c1 0.373%
CC(=O)c1cc(-c2ccc(F)cc2)n(CCC(=O)Nc2nc3c(C)cccc3s2)c1C -15.2%
Cc1ccc2c(c1)c1c(c(=O)n(-c3ccccc3C)c(=O)n1CC(=O)NCCC1=CCCCC1)n2C -15.2%
Cn1cnc(S(=O)(=O)N2CCC(C(=O)NCc3ccc(Cl)cc3)CC2)c1 -6.59%
COc1ccc(CNC(=O)c2cc3c(=O)n(C)c4ccccc4c3n2C)cc1 -5.35%
COCCNC(=O)c1nn(-c2ccc(Cl)cc2)nc1CO 7.96%
O=C(CSc1ccccc1)NCc1ccc2c(c1)CCN2C(=O)c1ccc(F)cc1 6.15%
O=C(Cc1ccccc1)N(Cc1cccnc1)c1nc2ccc(F)cc2s1 -15.6%
CCOc1cc(C2CC(=O)Nc3nc(SCc4ccccc4)[nH]c(=O)c32)ccc1O (centres undefined) -16.6%
CCc1ccc2oc(-c3ccc(NC(=O)c4cc(OC)c(OC)c(OC)c4)cc3)nc2c1 2.06%
CCOC(=O)c1ccc(N2C(=O)c3[nH]nc(-c4ccc(OCC)cc4)c3C2c2ccc(OC)cc2OC)cc1 (centres undefined) -22.4%
Cc1ccccc1-c1nnc(C2CCN(S(=O)(=O)c3ccc(Cl)cc3)CC2)o1 -53.8%
CCc1ccc(CNC(=O)CCCN2C(=O)c3cccnc3Oc3ccc(Cl)cc32)cc1 -23.3%
O=C(COc1ccccc1)Nc1nnc(S(=O)(=O)N2CCCCCC2)s1 -20.5%
CC(C)c1ccccc1NC(=O)CN1C(=O)c2cccc3cccc1c23 -21.7%
CCC(=O)Nc1ccc2nc(SCc3ccc(C)cc3)sc2c1 2.56%
Cc1nc(N2CCCC2)c2c(C(=O)N3CCN(c4cccc(C)c4C)CC3)c(C)oc2n1 -37.1%
O=C(CSc1nc(-c2ccccc2)[nH]c1-c1ccccc1)Nc1ccc2c(c1)OCCO2 -3.7%
Cc1ccc(Nc2cc(C)c(C#N)c3nc4ccccc4n23)cc1Cl 15.1% [at 11.5 µM, percent change from vehicle, -100% = no light]
CC(C)c1cc(-c2nc(-c3ccccc3)no2)n[nH]1 19.5%
CN(CC(=O)Nc1ccccc1Cl)S(=O)(=O)c1ccc(C(=O)N2CCOCC2)s1 -4.24%
COc1ccc(S(=O)(=O)N2CCN(Cc3ccc4c(c3)OCO4)CC2)cc1OC -27.5%
COc1ccc(-c2nc(CN3CCC(C(=O)NCc4ccccc4)CC3)c(C)o2)cc1OC -3.36%
Cn1nnc2c(N3CCN(c4ccccc4Cl)CC3)ncnc21 12%
CC(C)(C)c1ccc(-c2nc(SCCCOc3ccccc3)n3[nH]c(=O)cc3n2)cc1 -26.8%
COc1ccc(-c2c3c(=O)n(C)c(=O)n(C)c3c3c(C)nc4ccccc4n23)cc1 -13.8%
CCOC(=O)Cn1c(=O)n(-c2ccccc2OC)c2nc(-c3cccc(F)c3)nc(C(N)=O)c21 -28.2%
Cc1ccc(-c2nnc(SCc3cccc(C#N)c3)o2)cc1 1.25%
CCOC(=O)c1ccccc1NC(=O)N(C(C)C)C1CCN(C(C)=O)CC1 -5.33%
CCOC(=O)c1cccnc1SCC(=O)Nc1ccc(C)cc1C 0.617%
CCCCc1ccc(NC(=O)c2ccc(=O)n(Cc3cccc(C)c3)c2)cc1 -37.7%
Cc1ccc2c(c1)-c1c(cnc3cc(-c4ccccc4)nn13)CO2 14.3%
O=C(NCCc1ccccc1)c1nnc(Cc2cccc(F)c2)o1 -21.5%
COc1ccc(-c2nc(C)c(CCNS(=O)(=O)c3cc(C)c(C)cc3C)s2)cc1 -32.5%
CN(C)CCNC(=O)c1ccc2c(=O)n3c(nc2c1)CCCCC3 -5.95%
COc1cccc(N2CCN(C(=O)CCc3c(C)nc4c(c3C)c(=O)n(C)c(=O)n4C)CC2)c1 -12.2%
Cc1ccccc1-n1c(SCc2ccc(Cl)cc2)nc2[nH]ncc2c1=O -33.6%
CCC(C)NC(=O)c1ccc2c(c1)N(Cc1ccccc1)C(=O)c1ccccc1S2 (centres undefined) -32.3%
CCOc1ccc(CNC(=O)C2CCCN(S(=O)(=O)c3ccc4c(ccn4C)c3)C2)cc1 (centres undefined) -34.5%
CCN(CC)c1cc2c(cc1F)c(=O)c(S(=O)(=O)c1ccc(OC)cc1)cn2CC -16.9%
COc1ccc(-c2nc(CSc3nncn4c3cc3sccc34)c(C)o2)cc1OC -7.11%
O=C(CN1C(=O)CCc2cc(S(=O)(=O)N3CCOCC3)ccc21)NCc1ccccc1 -5.75%
CCNc1nc(OC)nc(Oc2ccc(=O)[nH]n2)n1 -8.49%
CC(C)(C)c1ccc(S(=O)(=O)N2CCN(Cc3noc(CCC(=O)N4CCCCC4)n3)CC2)cc1 -35.8%
CN1[C@@H]2CC[C@H]1CC(OC(=O)C(O)c1ccccc1)C2 (some centres undefined) -4.01%
Cc1cc(C)cc(S(=O)(=O)c2cn(C)c3cc(N4CCCC4)c(F)cc3c2=O)c1 -16.3%
CCc1ccc(NC(=O)CSC2=Nc3ccccc3C3=NC(CCC(=O)NCc4ccco4)C(=O)N23)cc1 (centres undefined) -1.84%
CCc1ccccc1NC(=O)N(C)CCc1c(C)nn(C)c1C -6.57%
Cc1ccc(-c2nc3sc(CCNC(=O)c4ccc(C)c(C)c4)c(C)n3n2)cc1 6.93%
O=C(CCS(=O)(=O)c1cccs1)Nc1ccc(C(=O)Nc2ccccc2F)cc1 1.99%
CCSc1ncc(Cl)c(C(=O)Nc2ccc(S(=O)(=O)N3CCCCC3)cc2)n1 -20.3%
Cc1ccc(C)c(Cn2cc(S(=O)(=O)c3ccc(Cl)cc3)c(=O)c3cc(F)ccc32)c1 4.56%
